Data taken from the domain aggregation screens of Martell et al. (2025).

Assay: soluble fraction after stress (log2 fold change); higher = more stays soluble; pooled small domains, quantitative proteomics
Conditions: stress: pH 4
How it was run: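 Pooled custom libraries of small protein domains were stressed at pH 4 and then measured by high-throughput quantitative proteomics. The fold change in the amount of each domain that stays soluble after the acid stress serves as a measure of aggregation propensity. Fold changes are given on a log2 scale, and higher values mean more of the domain stayed soluble.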

Compared with “HMDSLPEPIKRLLNVLGDKKLSAAEIMEQLGLSHRATFRKNYLNPALELGLIEMTIPDKPNSRNQKYIKKQ”, “HMETLAWADTAQNGLDRLVAAQPILVRISAAKRLRDAAEQIARSAGVATVEIEHVQHASDSLQFGDA” is lower in “soluble fraction (log2)” value: -0.342 for the first, -0.745 for the second.

Going from “HMGPSEPVIVKWFNRLKGYGFVTRPDGEADIFVHMETVRRAGLAELMPGQTLHARITEGQKGPLVVALGE” to “HMKMVEGKVKWFNDSKGFGFIEQDGGKDVFVHHSAIQAEGFKSLAEGERVSFDVVAGPKGPAAANVRK”, the “soluble fraction (log2)” value rises from -1.18 to ≥ 0.43.

First: HMLSQEALEFVRSLVDRPMVIFTTAYSEYAVEGFKLDAVDYLLKPFSFADFSRSAGKANSLYELRHN
Second: HMNNAVITINNLVKRFPVGGDFFTALKDIDLTLNKGEFTGLIGPSGSGKTTLLNIIGGLDSPTEGQVSV
The “soluble fraction (log2)” value of the first is lower: -0.393 for the first, 0.201 for the second.

Going from “HMQFGLDQVAHQRAHTLSGGMQRRLSIAMGLITNPKILFLDEPTVGLDVLARHELWHTLTALK” to “HMSDMGRDEAYEILGLARDSSEAEIREAHKKLMINNHPDHGGSAYLATKINRARDVLLDELNFF”, the “soluble fraction (log2)” value falls from 0.22 to -1.44.

First: HMSDYYQDLGVERSATPEEIKRAYRRLARQLHPDVNPGAEAEEQFKTVSRAYEVLSDADKRRNYDLGVDP
Second: HMVSSEQHYTVLGITKQATDTEVKKAYRKMAVKYHPDKLQGVSEDIKKLSEEKFLKVKEAYEQIMKGR
The “soluble fraction (log2)” value of the first is higher: 0.149 for the first, -0.286 for the second.
